Reference: PubChem BioAssay AID1468 (National Center for Advancing Translational Sciences (NCATS), 2008)
The campaign covered roughly 280,000 compounds. About 1,100 (0.39%) were called active. The shares of active, inactive and inconclusive entries below differ from those in the screen. Calls follow the shape of the dose curve; as a rule, active = well fitted inhibition curve with a large enough effect; inconclusive = small, poorly fitted or top-dose-only effect, or effect the other way; inactive = flat fitted curve, though single readings scatter. No potency is given beside an inconclusive call; the fits are too rough.

Target: Microtubule-associated protein tau (Homo sapiens) (UniProt P10636)
Assay: qHTS for Inhibitors of Tau Fibril Formation, Fluorescence Polarization; also: nearly all actives have a fitted effect of over 55% in size
Details: K18 P301L tau heparin fibrillization, Alexa594 FP, 6 h; series mostly up to 57.7 µM; activity, negative = inhibition: at the top concentration
Procedure, shortened: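 Human tau K18 […] P301L fragment, 15 uM unlabeled plus 0.24 uM Alexa 594-labeled tau (final), with compound and 20 uM heparin in 100 mM sodium acetate pH 7; 6 hr at 37 C, then Alexa 594 FP read.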
% is scaled to controls: 0 for no effect and ±100 for the full control effect; potency is read from the fitted curve at half-maximal effect; tags tell the direction and shape of the fitted curve.

UniProt P10636, sequence (P10636 whole entry, looked up): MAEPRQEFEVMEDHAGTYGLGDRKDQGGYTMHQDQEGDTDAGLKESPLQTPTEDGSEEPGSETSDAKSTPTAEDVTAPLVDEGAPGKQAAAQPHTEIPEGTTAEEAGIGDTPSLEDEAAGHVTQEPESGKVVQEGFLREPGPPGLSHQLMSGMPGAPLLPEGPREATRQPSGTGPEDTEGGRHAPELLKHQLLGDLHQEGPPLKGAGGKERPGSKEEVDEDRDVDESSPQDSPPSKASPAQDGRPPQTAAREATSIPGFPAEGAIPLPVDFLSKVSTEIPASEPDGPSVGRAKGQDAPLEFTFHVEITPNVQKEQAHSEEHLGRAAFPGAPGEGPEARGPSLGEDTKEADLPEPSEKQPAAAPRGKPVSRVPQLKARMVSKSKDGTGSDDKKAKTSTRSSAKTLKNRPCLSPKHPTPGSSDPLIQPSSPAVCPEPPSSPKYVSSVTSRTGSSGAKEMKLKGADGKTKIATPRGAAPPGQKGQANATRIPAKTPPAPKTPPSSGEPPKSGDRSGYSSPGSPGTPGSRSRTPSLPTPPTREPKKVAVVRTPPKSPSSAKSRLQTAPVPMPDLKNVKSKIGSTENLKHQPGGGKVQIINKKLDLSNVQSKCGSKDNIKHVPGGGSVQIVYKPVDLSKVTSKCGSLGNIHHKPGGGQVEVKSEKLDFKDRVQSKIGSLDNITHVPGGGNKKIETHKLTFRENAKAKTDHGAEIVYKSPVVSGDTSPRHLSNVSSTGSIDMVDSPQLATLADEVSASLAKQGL

Row | Compound | Potency | activity, negative = inhibition
1 | CCOC(=O)c1nc2sc3c(c2c(=O)[nH]1)CCCC3 | inactive | –
2 | CSCCC(NC(=O)c1ccc(Cl)cc1)C(=O)OCC(=O)Nc1ccc(C#N)cc1 (configuration not stated) | inconclusive [inhibitor, full curve, poor fit] | –
3 | CCOC(=O)c1ccc(N2C(=O)c3n[nH]c(-c4cccs4)c3C2c2cccc(O)c2)cc1 (configuration not stated) | inconclusive [inhibitor, partial curve] | –
4 | Cn1nc(C(=O)Nc2c(-c3ccccc3)nc3sccn23)c2ccccc2c1=O | inconclusive [inhibitor, single point] | –
5 | COc1ccc([N+](=O)[O-])cc1NC(=O)C(C)Sc1nc(-c2ccccc2)cs1 (configuration not stated) | inconclusive [inhibitor, partial curve] | –
6 | Cc1ccc(/C=C2\SC(=S)N(/N=C/c3cc([N+](=O)[O-])ccc3O)C2=O)o1 | inconclusive [inhibitor, single point] | –
7 | O=C(N/N=C/c1ccc(-c2ccccc2[N+](=O)[O-])o1)[C@H]1C[C@@H]1c1ccccc1 | inconclusive [inhibitor, partial curve] | –
8 | CCC(Sc1ccc2nnc(-c3ccc(F)cc3)n2n1)C(=O)OC (configuration not stated) | – | inactive: -0.0336%
9 | COc1ccc(-c2cc(C(F)(F)F)nc(SCCC(=O)Nc3ccc(F)cc3F)n2)cc1 | inconclusive [inhibitor, partial curve] | –
10 | CC(=O)/C(=C(/O)c1ccccc1)c1nc2ccccc2[nH]1 | inconclusive [inhibitor, full curve, poor fit] | –
11 | COc1cc(/C(C)=N/N2CCOCC2)cc(OC)c1OC | inconclusive [activator, partial curve, poor fit] | –
12 | COc1ccc2[nH]c(C)c(CCNC(=S)Nc3ccc(F)cc3)c2c1 | inconclusive [activator, partial curve] | –
13 | CNC(=O)c1cc2cc(OC)ccc2n1CCN(Cc1ccccc1)Cc1ccccc1 | inconclusive [inhibitor, full curve, poor fit] | –
14 | COc1ccc2cc(C(=O)Nc3ccc(S(N)(=O)=O)cc3)sc(=O)c2c1OC | inconclusive [inhibitor, single point] | –
15 | O=C(c1ccc(Br)o1)N1CCN(c2ccccn2)CC1 | – | inactive: 5.17%
16 | O=C(NCC1CCCO1)C(=O)N/N=C/c1ccc(O)c(Cl)c1 (configuration not stated) | – | inactive: -2.29%
17 | O=C(O)c1ccc(N2C(=O)/C(=C/c3ccc(-c4ccc([N+](=O)[O-])cc4)o3)C=C2c2ccccc2)cc1 | inconclusive [inhibitor, single point] | –
18 | Cc1ccc(-c2csc(N(C)C(=O)c3c(C)nn(-c4ccccc4)c3Cl)n2)cc1 | inconclusive [inhibitor, single point] | –
19 | CC1CCN(S(=O)(=O)c2ccc3nc(Nc4cccc(F)c4)ccc3c2)CC1 | active: 12.6 µM | –
20 | O=C(Nc1nc(-c2ccc(S(=O)(=O)N3CCCCCC3)cc2)cs1)c1ccccc1 | inconclusive [inhibitor, partial curve, poor fit] | –
21 | O=C(NC(=S)Nc1cccc(Cl)c1N1CCCCC1)c1ccco1 | inconclusive [inhibitor, partial curve] | –

Row | Compound | Potency | activity, negative = inhibition
22 | O=c1c(N2CCN(c3ccc(F)cc3)CC2)csc2ccc(F)cc12 | inconclusive [activator, partial curve, poor fit] | –
23 | CN(C)c1ccc(NC(=O)CC(NCc2cccnc2)C(=O)O)cc1 (configuration not stated) | inconclusive [inhibitor, single point] | –
24 | COc1ccc(CN(CC(=O)NCC2CCCO2)C(=O)CNS(=O)(=O)c2ccc(C)cc2)cc1 (configuration not stated) | inconclusive [inhibitor, partial curve, poor fit] | –
25 | Cc1ccc(-c2cc(C(=O)N/N=C/c3c[nH]c4ccccc34)[nH]n2)cc1 | inconclusive [activator, full curve] | –
26 | COc1ccc2nc(N3CCN(C(=O)CS(=O)(=O)c4ccc(C)cc4)CC3)sc2c1 | – | inactive: 6.67%
27 | CCCN(CCC)C(=O)CSc1nc2n[nH]c(C)c2c(=N)n1-c1ccc(OCC)cc1 | – | inactive: 1.29%
28 | O=C(/C=C/c1ccccc1)NC(NC(=S)Nc1cc(Cl)ccc1Cl)C(Cl)(Cl)Cl (configuration not stated) | inconclusive [inhibitor, single point] | –
29 | COc1ccc(-c2cc3nc4ccccc4n3c(N)c2C#N)cc1 | – | inactive: 9.78%
30 | CCC1CCCCN1c1cc(C)nc2cc(-c3cccc(C)c3)nn12 (configuration not stated) | – | inactive: 10.1%
31 | Cn1c(=O)c2c(-c3ccccc3Cl)n(Cc3ccc(Cl)cc3)cc2n(C)c1=O | – | inactive: -14.3%
32 | CCN1/C(=C/c2ccc3cc(C)cc(C)c3[n+]2CC)Sc2cc(C)ccc21 | inconclusive [inhibitor, single point] | –
33 | CCOC(=O)Cn1c(-c2cccnc2Cl)nc2cc(Cl)c(Cl)cc21 | inconclusive [inhibitor, single point] | –
34 | CC(=O)Oc1ccc(N2C(=O)CCC2=O)cc1 | – | inactive: 1.45%
35 | COc1ccc(-c2nn(-c3ccccc3)cc2/C=C(/C#N)C(N)=O)cc1[N+](=O)[O-] | inconclusive [inhibitor, single point] | –
36 | COc1cc(/C=N/NS(=O)(=O)c2ccccc2)ccc1OS(=O)(=O)c1ccc(C)cc1 | inconclusive [inhibitor, full curve] | –
37 | CN(C)S(=O)(=O)c1cccc(NC(=S)N/N=C/c2cc(Br)ccc2O)c1 | inconclusive [inhibitor, partial curve] | –
38 | COCCn1nnnc1C(c1cccs1)N1CCN(c2ccccc2)CC1 (configuration not stated) | inconclusive [inhibitor, partial curve] | –
39 | CN(C)Cc1ccccc1-c1cc(NC2CC2)ncn1 | – | inactive: 6.02%
40 | O=C1c2oc3ccccc3c(=O)c2C(c2cccc(O)c2)N1CCCN1CCOCC1 (configuration not stated) | – | inactive: -4.97%
41 | Cc1ccc(NC(=O)Cn2c(=O)n(CCCS(=O)(=O)C3CCCCC3)c(=O)c3ccccc32)cc1F | – | inactive: -8.74%
42 | COc1ccc(C(=O)c2oc3ccccc3c2NC(=O)COc2ccc(C)cc2)cc1 | inconclusive [inhibitor, single point] | –
